Results published in patent US9457029B2, “Treatment of genotyped diabetic patients with DPP-IV inhibitors such as linagliptin” (Boehringer Ingelheim International GmbH, priority 2009, dated 2016).
Read-outs that look alike come from different tables or passages of the source.

Key:
[1] = system: Japanese patients with type 2 diabetes mellitus; settings: week 26
[2] = system: Japanese patients with type 2 diabetes mellitus; test: 12-week placebo-controlled study of linagliptin monotherapy in Japanese patients; type: in vivo, human; settings: LI 5 mg, 12 weeks
Method: Of those; 9.4%, 8.8% and 10.0%, respectively, are assessed as being drug-related. […] Body weight is unchanged with both LI 5 mg and 10 mg, −0.39 and −0.06 kg, respectively, which is not sigificantly different vs. PBO (−0.04 kg).

In the case of `CC#CCn1c(N2CCC[C@@H](N)C2)nc2c1c(=O)n(Cc1nc(C)c3ccccc3n1)c(=O)n2C` [linagliptin, 1-[(4-methyl-quinazolin-2-yl)methyl]-3-methyl-7-(2-butyn-1-yl)-8-(3-(R)-amino-piperidin-1-yl)-xanthine], the “difference of adjusted mean change from baseline in HbA1c vs. VB” value ([1]; LI 5 mg qd) is reported as −0.32%, the “difference of adjusted mean change from baseline in HbA1c vs. VB” value ([1]; LI 10 mg qd) is reported as −0.39% and the “proportion of patients experiencing at least one adverse event (AE)” value [2] is reported as 56.0%.
